Common to all, as to experiment: minimum inhibitory concentration
Compound in one assay: CNC(C)C1CCC(N)C(OC2C(N)CC(N)C(OC3OCC(C)(O)C(NC)C3O)C2O)O1 [Gentamicin]
How it is done:
(§1)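 Broth microdilution MIC per ISO 10932 on precoated VetMIC Lact-1 plates (tylosin, vancomycin and ampicillin plates prepared manually) against lactic acid bacteria and bifidobacteria isolates. Plates were read visually after 48 h anaerobic incubation (bifidobacteria 72 h; enterococci and staphylococci 24 h aerobic) at species-specific temperatures of 30 or 37 °C. Values prefixed with < or > are outside the tested dilution range.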

Compound in a further assay: O=C(N[C@H](CO)[C@H](O)c1ccc([N+](=O)[O-])cc1)C(Cl)Cl [Chloramphenicol]
How it is done:
as §1

Compound in the next assay: CN(C)[C@@H]1C(O)=C(C(N)=O)C(=O)[C@@]2(O)C(O)=C3C(=O)c4c(O)cccc4[C@@](C)(O)[C@H]3C[C@@H]12 [Tetracycline]
How it is done:
as §1

Compound in the next assay: CCC[C@@H]1C[C@@H](C(=O)N[C@@H]([C@H]2O[C@H](SC)[C@H](O)[C@@H](O)[C@H]2O)[C@H](C)Cl)N(C)C1 [Clindamycin]
How it is done: as §1

Compound in the next assay: NC[C@H]1O[C@H](O[C@H]2[C@H](O)[C@@H](O[C@H]3O[C@H](CO)[C@@H](O)[C@H](N)[C@H]3O)[C@H](N)C[C@@H]2N)[C@H](O)[C@@H](O)[C@@H]1O [Kanamycin]
As to the method:
as §1

Compound in the next assay: CC[C@H]1OC(=O)[C@H](C)[C@@H](O[C@H]2C[C@@](C)(OC)[C@@H](O)[C@H](C)O2)[C@H](C)[C@@H](O[C@@H]2O[C@H](C)C[C@H](N(C)C)[C@H]2O)[C@](C)(O)C[C@@H](C)C(=O)[C@H](C)[C@@H](O)[C@]1(C)O [Erythromycin]
As to the method: as §1

Compound in a further assay: CN[C@@H]1[C@H](O[C@H]2[C@H](O[C@H]3[C@H](O)[C@@H](O)[C@H](N=C(N)N)[C@@H](O)[C@@H]3N=C(N)N)O[C@@H](C)[C@]2(O)C=O)O[C@@H](CO)[C@H](O)[C@H]1O [Streptomycin]
How it is done:
as §1

Compound in the next assay: CC1(C)S[C@@H]2[C@H](NC(=O)[C@H](N)c3ccccc3)C(=O)N2[C@H]1C(=O)O [Ampicillin]
How it is done:
as §1

Compound in another assay: NC[C@@H]1O[C@H](O[C@H]2[C@@H](O)[C@H](O[C@@H]3[C@@H](O)[C@H](N)C[C@H](N)[C@H]3O[C@H]3O[C@H](CN)[C@@H](O)[C@H](O)[C@H]3N)O[C@@H]2CO)[C@H](N)[C@@H](O)[C@@H]1O [Neomycin]
As to the method: as §1

Among the data in the supplement of paper PMC9542798 are minimum inhibitory concentration values, retold here.
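Note: isolates derived from commercial starter, protective, probiotic or feed-additive cultures, from fermented products, from human gut mucosa or feces, and from human milk or colostrum.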

“Pediococcus pentosaceus IM1068 (strain group: non-starter strains)”: the minimum inhibitory concentration with Gentamicin was 4 µg/mL; with Chloramphenicol, 8 µg/mL; with Tetracycline, 32 µg/mL; with Clindamycin it was 0.12 µg/mL; with Kanamycin, 256 µg/mL; in the assay with Erythromycin, 0.5 µg/mL. Also, the results for the minimum inhibitory concentration with Streptomycin, with Ampicillin and with Neomycin were 64 µg/mL, 4 µg/mL and 8 µg/mL, respectively.
In the case of “Pediococcus pentosaceus IM1089 (strain group: non-starter strains)”, the minimum inhibitory concentration with Gentamicin turned out to be 8 µg/mL; with Chloramphenicol, 8 µg/mL; in the assay with Tetracycline, 32 µg/mL; with Clindamycin it was 0.06 µg/mL; with Kanamycin, 256 µg/mL; in the assay with Erythromycin, 0.5 µg/mL. Also, the values for the minimum inhibitory concentration with Streptomycin, with Ampicillin and in the assay with Neomycin were 64 µg/mL, 4 µg/mL and 8 µg/mL, respectively.
“Pediococcus pentosaceus IM1113 (strain group: non-starter strains)”: the minimum inhibitory concentration with Gentamicin was 4 µg/mL; in the assay with Chloramphenicol, 8 µg/mL; with Tetracycline, 32 µg/mL; with Clindamycin it was 0.12 µg/mL; in the assay with Kanamycin, 256 µg/mL; with Erythromycin, 0.5 µg/mL. The minimum inhibitory concentration with Streptomycin was found to be 64 µg/mL; with Ampicillin, 4 µg/mL; with Neomycin, 8 µg/mL.
For “Pediococcus pentosaceus IM1126 (strain group: non-starter strains)”, the minimum inhibitory concentration is 8 µg/mL in the assay with Gentamicin; 4 µg/mL with Chloramphenicol; 32 µg/mL with Tetracycline; 0.12 µg/mL in the assay with Clindamycin; 256 µg/mL in the assay with Kanamycin; 0.5 µg/mL with Erythromycin. The minimum inhibitory concentration is 128 µg/mL in the assay with Streptomycin, 4 µg/mL with Ampicillin and 8 µg/mL with Neomycin.
In the case of “Pediococcus pentosaceus IM1139 (strain group: non-starter strains)”, the minimum inhibitory concentration with Gentamicin was 4 µg/mL; with Chloramphenicol, 4 µg/mL; with Tetracycline it was 32 µg/mL; in the assay with Clindamycin it was 0.06 µg/mL; with Kanamycin, 256 µg/mL; in the assay with Erythromycin it was 0.5 µg/mL. In addition, the minimum inhibitory concentration was found to be 64 µg/mL in the assay with Streptomycin, 8 µg/mL in the assay with Ampicillin and 8 µg/mL with Neomycin.
As to “Pediococcus pentosaceus IM1142 (strain group: non-starter strains)”, the minimum inhibitory concentration worked out at 4 µg/mL in the assay with Gentamicin; 8 µg/mL in the assay with Chloramphenicol; 32 µg/mL with Tetracycline; 0.06 µg/mL in the assay with Clindamycin; 256 µg/mL with Kanamycin; 0.5 µg/mL with Erythromycin. For the same test system, the minimum inhibitory concentration with Streptomycin amounted to 64 µg/mL; with Ampicillin it was 4 µg/mL; in the assay with Neomycin it was 8 µg/mL.
As to “Pediococcus pentosaceus IM1144 (strain group: non-starter strains)”, the minimum inhibitory concentration was 8 µg/mL in the assay with Gentamicin; 4 µg/mL in the assay with Chloramphenicol; 32 µg/mL in the assay with Tetracycline; 0.06 µg/mL with Clindamycin; 256 µg/mL with Kanamycin; 0.5 µg/mL in the assay with Erythromycin. The values for the minimum inhibitory concentration in the assay with Streptomycin, with Ampicillin and with Neomycin were 128 µg/mL, 4 µg/mL and 8 µg/mL, respectively.
On to “Pediococcus pentosaceus IM1150 (strain group: non-starter strains)”, for which the minimum inhibitory concentration with Gentamicin stood at 8 µg/mL; with Chloramphenicol, 4 µg/mL; with Tetracycline, 32 µg/mL; in the assay with Clindamycin, 0.06 µg/mL; with Kanamycin, 256 µg/mL; with Erythromycin, 0.5 µg/mL. Also, the minimum inhibitory concentration came to 128 µg/mL with Streptomycin, 16 µg/mL with Ampicillin and 4 µg/mL with Neomycin.
In the case of “Pediococcus pentosaceus IM1294 (strain group: non-starter strains)”, the minimum inhibitory concentration with Gentamicin amounted to 8 µg/mL; with Chloramphenicol, 8 µg/mL; in the assay with Tetracycline, 64 µg/mL; with Clindamycin it was 0.06 µg/mL; with Kanamycin, 256 µg/mL; with Erythromycin, 0.5 µg/mL. Further, the minimum inhibitory concentration was determined as 64 µg/mL with Streptomycin, 4 µg/mL with Ampicillin and 8 µg/mL in the assay with Neomycin.
